The campaign covered roughly 48,000 compounds. About 550 (1.1%) were called active. About 4% were inconclusive and are not listed. Cut-off read from the data, not from the text of the source: active = potency below about 15 µM; inconclusive = mostly about 16 µM to 33 µM; inactive = weaker than that. This is one part of the list.
Potency is the fitted concentration of half-maximal effect.

This test addresses Lysosomal acid glucosylceramidase (Homo sapiens) (UniProt P04062). Kind of test: Glucocerebrosidase.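 Note: the screen sought inhibitors.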 The conditions noted are these: purified enzyme, resorufin glucoside fluorescence (screen aimed at inhibitors), 20 min. In a few lines: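 Wild-type enzyme at 0.2 nM final in 50mM citric acid/KH2PO4, 10mM sodium taurocholate, 0.01% tween-20, pH 5.9, with resorufin beta-D-glucopyranoside at 30 uM final. Compounds titrated, 20 min at RT, red fluorescence read; AC50 from titration.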
UniProt P04062, sequence (P04062 whole entry, looked up): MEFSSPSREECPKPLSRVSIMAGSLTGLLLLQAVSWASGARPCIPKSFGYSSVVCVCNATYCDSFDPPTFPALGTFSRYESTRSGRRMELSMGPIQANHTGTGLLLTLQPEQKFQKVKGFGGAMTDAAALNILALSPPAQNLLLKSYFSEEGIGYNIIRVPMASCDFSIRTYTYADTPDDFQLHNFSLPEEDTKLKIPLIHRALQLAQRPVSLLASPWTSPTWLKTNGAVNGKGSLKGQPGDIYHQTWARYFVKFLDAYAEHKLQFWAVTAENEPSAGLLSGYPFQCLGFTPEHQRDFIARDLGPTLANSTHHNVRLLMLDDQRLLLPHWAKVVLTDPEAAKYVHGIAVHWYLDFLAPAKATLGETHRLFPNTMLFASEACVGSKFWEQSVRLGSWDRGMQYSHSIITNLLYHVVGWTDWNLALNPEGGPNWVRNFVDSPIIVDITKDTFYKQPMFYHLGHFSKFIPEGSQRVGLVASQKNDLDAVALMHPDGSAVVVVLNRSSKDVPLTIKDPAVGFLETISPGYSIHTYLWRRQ
With `COc1cccc(Oc2cncnc2-c2ccc(OC)cc2O)c1`, the Potency is inactive: > 76.9 µM.
The figure for `COC(=O)CSc1nc(C(C)C)nc2ccccc12` is inactive: > 76.9 µM.
Take `O=c1o[nH]c(-c2ccccc2)c1C1=NCCCCC1`: the Potency is inactive: > 76.9 µM.
Turning to `Cc1cccc(NC(=O)CSc2nnc(CSc3nc(C)cc(C)n3)n2Cc2ccco2)c1`, the Potency is inactive: > 76.9 µM.
With `CCOC(=O)C(C)Sc1nnc(-c2ccccc2O)n1Cc1ccccc1` (stereo not drawn) the figure was inactive: > 76.9 µM; with `CCc1oc(C(=O)O)cc1CN(CC)CC`, inactive: > 76.9 µM; with `O=C(CCC1CCCC1)N1CCN(C2CCCC2)CC1`, inactive: > 76.9 µM.
`CCOc1ccccc1N(C(=O)c1snc(C(N)=O)c1N)C(C(=O)NCCC(C)C)c1ccco1` (stereo not drawn): the Potency is inactive: > 76.9 µM.
With `Cn1nc(C(C)(C)C)cc1C(=O)Nc1nc2c(s1)C(=O)CC(C)(C)C2` the figure was inactive: > 76.9 µM.
With `CCOc1ccc(-c2nnc(-c3ccncc3)o2)cc1` the figure was inactive: > 76.9 µM.
With `CC1CN(c2oc(-c3ccco3)nc2C#N)CC(C)O1` (stereo not drawn) the figure was inactive: > 76.9 µM.
For the molecule `Cc1ccc(/C=c2\sc3nc(-c4ccccc4Br)nn3c2=O)o1`, the Potency was inactive: > 76.9 µM.
The figure for `O=C(COC(=O)C1(c2ccccc2)CC1)N1CCN(c2ccc(F)cc2)CC1` is inactive: > 76.9 µM; for `CC1=C(Sc2nc3ccccc3[nH]2)C(=O)NC(C)(C)C1` it is inactive: > 76.9 µM; for `Cc1ccccc1OC(C)C(=O)NC1CCCC1` (stereo not drawn) it is inactive: > 76.9 µM.
With `CCC(=O)NCCc1cc2cc(C)c(C)cc2[nH]c1=O` the figure was inactive: > 76.9 µM.
With `CC(C)COP(=O)(c1ccc(N(C)C)cc1)C(O)c1ccncc1` (stereo not drawn) the figure was inactive: > 76.9 µM; with `CCSc1ccc2nnc(-c3ccc(F)cc3)n2n1`, inactive: > 76.9 µM.
Turning to `CCOC(=O)c1ccccc1NC(=O)CSc1nnc(Cc2cccn2C)n1-c1ccc(F)cc1`, the Potency entry was “inactive”.
Turning to `CCCCOc1ccc(/C(O)=C2/C(=O)C(=O)N(CCN(C)C)C2c2ccc(O)c(OC)c2)cc1` (stereo not drawn), the Potency is inactive: > 76.9 µM.
The figure for `CC(=O)c1cccc(NC(=O)Nc2ccc(C(=O)N3CCOCC3)cc2)c1` is inactive: > 76.9 µM.
With `CCN1CSC(=S)N(Cc2ccc(OC)cc2)C1` the figure was inactive: > 76.9 µM; with `CCCn1c(SCC(=O)NCCc2ccccc2)nnc1-c1cccnc1`, inactive: > 76.9 µM.
The figure for `O=C(NCCC1=CCCCC1)c1ccc(Cl)c(S(=O)(=O)N2CCOCC2)c1` is inactive: > 76.9 µM.
Take `CC(C)OC(=O)C1C2C=CC3(CN(CC4CCCO4)C(=O)C13)O2` (stereo not drawn): the Potency was inactive: > 76.9 µM.
For `COc1ccc(-c2nc(CN3CCC(C(=O)NC4CCCc5ccccc54)CC3)c(C)o2)cc1OC` (stereo not drawn), the Potency was inactive: > 76.9 µM.
With `Cc1c(OCc2nn[nH]n2)ccc2c(-c3ccccc3)cc(=O)oc12` the figure was inactive: > 76.9 µM; with `CCOC(=O)N1CCN(C(=O)CCN2C(=O)COc3ccc(C)cc32)CC1`, inactive: > 76.9 µM; with `CSc1ccc(Cl)c(C(=O)OCC(=O)N2CCOCC2)c1`, inactive: > 76.9 µM.
With `CC1(C)Cc2c(sc3c2c2ncnn2c2nnc(SCC(=O)NCc4ccco4)n32)CO1` the figure was inactive: > 76.9 µM; with `COc1cccc(NS(=O)(=O)c2ccc3[nH]cc(C(=O)NCCN4CCOCC4)c(=O)c3c2)c1`, inactive: > 76.9 µM; with `O=C(NCc1ccccc1)C1CCN(C(=O)NCc2ccccc2)CC1`, inactive: > 76.9 µM.
The figure for `O=C(CCN1C(=O)C2CC=C(Cl)CC2C1=O)NCc1ccco1` (stereo not drawn) is inactive: > 76.9 µM.
As for `NC(=O)c1cn(-c2ccccc2)nc1-c1cccnc1`, the Potency is inactive: > 76.9 µM.
Consider `Cc1c(C(=O)N2CCOCC2)sc2nc(-c3ccccc3)cn12`, for which the Potency was inactive: > 76.9 µM.
The figure for `COC(=O)c1ccc(N2CCN(C)CC2)c(NC(=O)COc2ccc(OC)cc2)c1` is inactive: > 76.9 µM.
The figure for `Cc1cc(C(=O)N(C)CC(=O)Nc2ccccc2C(F)(F)F)c(C)o1` is inactive: > 76.9 µM; for `CCOC(=O)N1CCN(CC(=O)c2c(C)[nH]c3ccccc23)CC1` it is inactive: > 76.9 µM.
The entry for `CCCCNC(=O)CCn1c(=O)c2ccccc2n(CC(=O)Nc2ccccc2OCC)c1=O` is “inactive”; for `O=C(N1CCOCC1)N1CCN(S(=O)(=O)N2CCCCC2)CC1` it is inactive: > 76.9 µM.
For the molecule `O=C(COc1ccc(-n2cnnn2)cc1)NC1CCCCC1`, the Potency was inactive: > 76.9 µM.
Turning to `CCOC(=O)c1c(C)[nH]c(C(=O)CSc2nnc(CC(C)c3ccccc3)o2)c1C` (stereo not drawn), the Potency was inactive: > 76.9 µM.
With `Cc1noc(C)c1CN1C(=O)NC2(CCCCCCC2)C1=O`, the Potency was inactive: > 76.9 µM.
The figure for `CCCn1c(C)cc(C(=O)COc2ncnc3sccc23)c1C` is inactive: > 76.9 µM; for `CCc1nn2c(=O)cc(N3CCN(c4cc(C)nc5ccccc45)CC3)nc2s1` it is inactive: > 76.9 µM; for `N#Cc1cnc(SCC(=O)Nc2ccccc2C(F)(F)F)nc1N` it is inactive: > 76.9 µM.
Regarding `Cc1cc(C)n(-c2nc3c(c(=O)[nH]c(=O)n3C)n2Cc2cccc(Br)c2)n1`, the Potency is inactive: > 76.9 µM.
With `CCn1nc(NC(=O)c2ccncc2)c2cc3ccc(C)cc3nc21` the figure was inactive: > 76.9 µM; with `Cc1c(C(=O)NCc2cccs2)oc2ccccc12`, inactive: > 76.9 µM; with `CC(=O)NCCOc1nc(N(C)C)nc(N2CCOCC2)n1`, inactive: > 76.9 µM.
The figure for `CC(=O)Nc1ccc2nc(SCC(=O)O)sc2c1` is inactive: > 76.9 µM; for `CCN(CC)CCNc1ccnc2cc(Cl)ccc12` it is inactive: > 76.9 µM.
With `COc1ccc(OC)c(-c2nnc(-c3ccc(C)o3)o2)c1` the figure was inactive: > 76.9 µM; with `COC(=O)CSc1nnc(Cc2cc(=O)[nH]c(=O)[nH]2)n1-c1cccc(OC)c1`, inactive: > 76.9 µM; with `Cn1c(-c2ccc3c(c2)OCO3)cnc1NCc1ccccc1`, inactive: > 76.9 µM.
Turning to `Cc1ccc(NC(=O)c2oc3ccc(S(=O)(=O)N4CCOCC4)cc3c2C)cc1C`, the Potency was inactive: > 76.9 µM.
The figure for `Cc1csc(SCCn2c(N3CCCC3)nc3c2c(=O)[nH]c(=O)n3C)n1` is inactive: > 76.9 µM; for `CCC(=O)N1CCc2cc(S(=O)(=O)NCCC(=O)Nc3cc(C)cc(C)c3)ccc21` it is inactive: > 76.9 µM.

Values taken from PubChem BioAssay AID360 (National Center for Advancing Translational Sciences (NCATS), 2006).
